In patent US7592316B2, “Peptides as NS3-serine protease inhibitors of hepatitis C virus” (Schering Corporation, priority 2000, dated 2009):
*1 amine or outer side, *2 acyl side, *3 side chain or, on linkers, in order; H or OH if unused. Where a SMILES comes first, the peptide text is derived from it. Side-chain parts run from the residue outwards. [ ]: non-standard residue; d: D form. The star is where a group is joined. ξ: configuration not given here. Pro(3R,4S-CMe2) = CC1(C)[C@@H]2[C@@H](C(=O)O)NC[C@@H]21; ξPro(4R-NH2) = O=C(C1C[C@@H](N[*:3])CN1[*:1])[*:2]; Pro(4,4-S(CH2)3S) = O=C(O)[C@@H]1CC2(CN1)SCCCS2; ξPhg(3,5-(OMe)2) = COc1cc(OC)cc(C(N)C(=O)O)c1; ξPhg(2,3-(OMe)2) = COc1cccc(C(N)C(=O)O)c1OC; Pro(4,4-Me2) = CC1(C)CN[C@H](C(=O)O)C1; X25 = O=C(O)c1c(F)c(F)c(F)c(F)c1C(=O)*; Benzoyl(2,6-F2) = O=C(c1c(F)cccc1F)*; Isobutyloxycarbonyl = CC(C)COC(=O)*; NH(1-naphthyl) = c1ccc2c(N*)cccc2c1; X8 = O=C(C(=O)[*:2])C(CC1CC1)N[*:1]; Benzyl(3,4-Cl2) = Clc1ccc(C*)cc1Cl; Cyclopentylacetyl = O=C(CC1CCCC1)*; Isopropoxycarbonyl = CC(C)OC(=O)*; Hyp = O=C(O)[C@@H]1C[C@@H](O)CN1; X2 = CCCC(N[*:1])C(=O)C(=O)[*:2]; Aad = N[C@@H](CCCC(=O)O)C(=O)O; Chg = N[C@H](C(=O)O)C1CCCCC1; Phg = N[C@H](C(=O)O)c1ccccc1; Tle = CC(C)(C)[C@H](N)C(=O)O; ξChg = NC(C(=O)O)C1CCCCC1; ξPhg = NC(C(=O)O)c1ccccc1; MeOSuc = COC(=O)CCC(=O)*; Orn = NCCC[C@H](N)C(=O)O; PhAc = O=C(Cc1ccccc1)*; Boc = CC(C)(C)OC(=O)*; X56 = O=C(OC1CCOCC1)*; ξPip = O=C(O)C1CCCCN1; CO = O=C([*:1])[*:2]; ξK = NCCCCC(N)C(=O)O; ξV = CC(C)C(N)C(=O)O; Bn = c1ccc(C*)cc1; OtBu = CC(C)(C)O*; tBu = CC(C)(C)*

Each molecule was assayed against HCV NS3/NS4A protease (strain 1a) (Hepatitis C virus genotype 1a, UniProt P27958) (assay: biochemical). Settings: Compounds prepared by Solid Phase Synthesis, Table 3; read-out: Ki* CLASS.

Compound | Ki [nM]
CCCC(NC(=O)[C@@H]1C[C@@H](OC(C)(C)C)CN1C(=O)[C@@H](NC(=O)c1c(F)cccc1F)C1CCCCC1)C(=O)C(=O)NCC(=O)NC(C(N)=O)c1cccc(OC)c1OC (some centres unmarked) ({Benzoyl(2,6-F2)}-[Chg][Hyp](tBu)[X2]G[ξPhg(2,3-(OMe)2)]-NH2) | 101 to 1000
CCCC(NC(=O)[C@@H]1C[C@@H](OCc2ccccc2)CN1C(=O)C(NC(=O)OCC(C)C)C(C)C)C(=O)C(=O)NCC(=O)NC(CCCCN)C(N)=O (some centres unmarked) (Isobutyloxycarbonyl-[ξV][Hyp](Bn)[X2]G[ξK]-NH2) | > 1000
CCCC(NC(=O)[C@@H]1C[C@@H](OCc2ccc(Cl)c(Cl)c2)CN1C(=O)C(NC(=O)OCC(C)C)C1CCCCC1)C(=O)C(=O)NCC(=O)NC(C(N)=O)c1ccccc1 (some centres unmarked) (Isobutyloxycarbonyl-[ξChg][Hyp](Benzyl(3,4-Cl2))[X2]G[ξPhg]-NH2) | 1 to 100
CCCC(NC(=O)[C@@H]1C[C@@H](OCc2ccccc2)CN1C(=O)[C@H](CCCC(=O)OC(C)(C)C)NC(=O)Cc1ccccc1)C(=O)C(=O)NCC(=O)N[C@H](C(N)=O)c1ccccc1 (some centres unmarked) (PhAc-[Aad](OtBu)[Hyp](Bn)[X2]G[Phg]-NH2) | > 1000
CCCC(NC(=O)[C@@H]1C[C@@H](O)CN1C(=O)[C@@H](NC(=O)c1c(F)c(F)c(F)c(F)c1C(=O)O)C1CCCCC1)C(=O)C(=O)NCC(=O)NC(C(N)=O)c1cc(OC)cc(OC)c1 (some centres unmarked) (X25-[Chg][Hyp][X2]G[ξPhg(3,5-(OMe)2)]-NH2) | 101 to 1000
CCCC(NC(=O)[C@@H]1C[C@@H](OCc2ccccc2)CN1C(=O)[C@H](CCCNC(=O)CCC(=O)OC)NC(=O)OCC(C)C)C(=O)C(=O)NCC(=O)N[C@H](C(N)=O)c1ccccc1 (some centres unmarked) (Isobutyloxycarbonyl-[Orn](MeOSuc)[Hyp](Bn)[X2]G[Phg]-NH2) | > 1000

Same assay, conditions: HCV protease continuous assay results, Table 1; read-out: Ki* Range

Ki [nM] | Compound
> 1000 | CCCC(NC(=O)[C@@H]1CCCN1C(=O)[C@@H](NC(=O)OCC(C)C)C(C)C)C(=O)C(=O)NCC(=O)N1CCC(C(=O)OCC)CC1 (some centres unmarked) [Example 15]
101 to 1000 | CCC[C@@H](NC(=O)[C@@H]1[C@@H]2C(CN1C(=O)[C@@H](NC(=O)OCC(C)C)C(C)(C)C)[C@@H]1CC[C@@H]2C1)C(=O)C(=O)NCC(=O)NC(C(=O)N(C)C)c1ccccc1 (some centres unmarked) [Example 266]
> 1000 | CCCC(NC(=O)[C@@H]1CCCN1C(=O)[C@@H](NC(=O)OCC(C)C)C1CCCCC1)C(=O)C(=O)NCC(=O)O (some centres unmarked) [Example 54]
> 1000 | C=CCCC(NC(=O)[C@@H]1C[C@@H](OC(C)(C)C)CN1C(=O)[C@@H](NC(=O)OCC(C)C)C(C)(C)C)C(=O)C(=O)O (some centres unmarked) [Example 342]
> 1000 | CCCC(NC(=O)[C@@H]1C[C@@H](OCc2ccccc2)CN1C(=O)[C@@H](NC(=O)c1cc(Cl)c(Cl)cc1C(=O)O)C1CCCCC1)C(=O)C(=O)NCCCC(C(N)=O)c1ccccc1 (some centres unmarked) [Example 95]

Compound | Ki [nM]
CCCC(NC(=O)[C@@H]1CC2(CN1C(=O)[C@@H](NC(=O)OC1CCOCC1)C1CCCCC1)SCCCS2)C(=O)C(=O)NCC(=O)NC(C(=O)O)c1ccccc1 (some centres unmarked) [Example 127] (X56-[Chg][Pro(4,4-S(CH2)3S)][X2]G[ξPhg]-OH) | 1 to 100
CN(C)C(=O)[C@@H](NC(=O)CNC(=O)C(=O)C(CC1CC1)NC(=O)[C@@H]1[C@@H]2[C@H](CN1C(=O)[C@@H](NC(=O)OC(C)(C)C)C(C)(C)C)C2(C)C)c1ccccc1 (stereo partly drawn) [Example 320] (Boc-[Tle][Pro(3R,4S-CMe2)][X8]G[Phg]-NMe2) | 1 to 100
CCCC(NC(=O)[C@@H]1CC2(CN1C(=O)[C@@H](NC(=O)CC1CCCC1)C1CCCCC1)SCCCS2)C(=O)C(=O)NCC(=O)NC(C(=O)O)c1ccccc1 (some centres unmarked) [Example 135] (Cyclopentylacetyl-[Chg][Pro(4,4-S(CH2)3S)][X2]G[ξPhg]-OH) | 1 to 100
CCCC(NC(=O)[C@@H]1CCCN1C(=O)[C@@H](NC(=O)OCC(C)C)C(C)C)C(=O)C(=O)NCC(=O)N1CCCCC1C(=O)OCC (some centres unmarked) [Example 14] (Isobutyloxycarbonyl-VP[X2]G[ξPip]-OEt) | > 1000

Same assay, conditions: Table 4; HCV NS3/NS4A protease, spectrophotometric assay, 30° C., pH 6.5; read-out: Ki* Range

Compound | Ki [nM]
CCCC(NC(=O)[C@@H]1CC(C)(C)CN1C(=O)[C@@H](NC(=O)OC(C)C)C(C)(C)C)C(=O)C(=O)NCC(=O)NC(C(=O)N(C)C)c1ccccc1 (some centres unmarked) (Isopropoxycarbonyl-[Tle][Pro(4,4-Me2)][X2]G[ξPhg]-NMe2) | 1 to 100
CCCC(NC(=O)[C@@H]1CC(C)(C)CN1C(=O)[C@@H](NC(=O)OCC(C)C)C1CCCCC1)C(=O)C(=O)NCC(=O)NC(C(=O)N(C)C)c1ccccc1 (some centres unmarked) (Isobutyloxycarbonyl-[Chg][Pro(4,4-Me2)][X2]G[ξPhg]-NMe2) | 1 to 100
CCCC(NC(=O)C1C[C@@H](NC(=O)Nc2cccc3ccccc23)CN1C(=O)[C@@H](NC(=O)OCC(C)C)C1CCCCC1)C(=O)C(=O)NCC(=O)N[C@H](C(N)=O)c1ccccc1 (stereo partly drawn) (Isobutyloxycarbonyl-[Chg][ξPro(4R-NH2)]([CO-NH(1-naphthyl)])[X2]G[Phg]-NH2) | 101 to 1000

Same assay, conditions: Table 5; HCV NS3/NS4A protease, 30° C., pH 6.5; read-out: Ki* Range

Ki [nM] | Compound
1 to 100 | CNC(=O)C(=O)C(CC(F)(F)F)NC(=O)[C@@H]1[C@@H]2[C@H](CN1C(=O)[C@@H](NC(=O)OC(C)(C)C)C1CCCCC1)C2(C)C (some centres unmarked)
101 to 1000 | C=CCNC(=O)C(=O)C(CCC)NC(=O)[C@@H]1C2C(CN1C(=O)[C@@H](NC(=O)NC13CC4CC(CC(C4)C1)C3)C1CCCC1)C2(C)C (some centres unmarked)
1 to 100 | C=CCCC(NC(=O)[C@@H]1[C@H]2[C@@H](CN1C(=O)[C@@H](NC(=O)OC(C)C(C)C)C1Cc3ccccc3C1)C2(C)C)C(=O)C(=O)NCC=C (some centres unmarked)

Same assay, conditions: Table 5; HCV NS3/NS4A protease, spectrophotometric assay, 30° C., pH 6.5; read-out: Ki* Range

Ki [nM] | Compound
> 1000 | C=CCNC(=O)C(=O)C(CCC)NC(=O)[C@@H]1[C@H]2[C@@H](CN1C(=O)C(NCCC(C)(C)C)C(C)(C)C)C2(C)C (some centres unmarked)
1 to 100 | CN(C)C(=O)[C@@H](NC(=O)CNC(=O)C(=O)C(CC1CC1)NC(=O)[C@@H]1C2CC(C)(C)CC2CN1C(=O)[C@@H](NC(=O)OC(C)(C)C)C1CCCCC1)c1ccccc1 (some centres unmarked)
